Structures are written as SMILES. Screen size: about 340,000 compounds; about 6,900 (2%) were called active. No stated cut-off is given here; in the data, active means inhibition above about 30%; inactive means below that, where a call was filed. This is a selection; strong and weak results do not stand in their true shares. The source gives no active or inactive call for entries shown without one.

In this assay the target is D(2) dopamine receptor (Homo sapiens) (UniProt P14416). Briefly: HTS Assay for Allosteric Antagonists of the Human D2 Dopamine Receptor: Primary Screen for Antagonists. Further: 0% is about no effect. Particulars: HEK293 TREx D2 cells, calcium flux, dopamine EC80; at 10 µM; stronger effect = higher value. Put shortly: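 Tetracycline-induced HEK293 TREx cells expressing D2 receptor forced-coupled to calcium signalling, loaded with no-wash calcium dye. Compounds added and calcium flux read 180 s, then dopamine added at EC80 and read a further 180 s.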
Chain of UniProt P14416 (P14416 whole entry, looked up): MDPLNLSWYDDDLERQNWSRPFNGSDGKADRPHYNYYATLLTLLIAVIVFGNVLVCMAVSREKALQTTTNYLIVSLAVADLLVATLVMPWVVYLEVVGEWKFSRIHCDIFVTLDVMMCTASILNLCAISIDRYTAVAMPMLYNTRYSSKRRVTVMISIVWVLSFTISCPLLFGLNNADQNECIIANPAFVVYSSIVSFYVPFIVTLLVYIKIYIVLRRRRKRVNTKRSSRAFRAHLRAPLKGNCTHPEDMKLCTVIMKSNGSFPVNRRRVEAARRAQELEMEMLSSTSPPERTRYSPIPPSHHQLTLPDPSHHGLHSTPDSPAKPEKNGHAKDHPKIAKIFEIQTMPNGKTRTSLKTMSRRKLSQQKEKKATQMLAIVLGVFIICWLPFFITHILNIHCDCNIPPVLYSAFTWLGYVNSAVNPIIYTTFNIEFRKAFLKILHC
On the technique in general: Calcium flux is commonly read through the fluorescence of an indicator in the cells.
`CCC(=O)N(Cc1ccco1)Cc1cc2cccc(C)c2n2nnnc12`: the inhibition was active: 34%.
Take `COc1ccc(Cl)cc1NC(=O)Cn1c2ncccc2c(=O)n1-c1ccc(C)c(C)c1`: the inhibition came out at 14.2%.
For the compound `Cc1cccc(CCNC(=O)c2cc3ccccn3n2)c1`, the inhibition stood at 3.93%.
On to `Cc1cc(C)cc(N(CC(=O)Nc2cccc(C)c2C)S(=O)(=O)c2c(C)[nH]c(=O)[nH]c2=O)c1`, for which the inhibition turned out to be 16.4%.
For `COc1ccc(C2C=C(c3ccccc3)Nc3nc(NC(=O)c4ccc(C)cc4)nn32)cc1` (stereo unspecified) the value was 2.12%.
For `CCOC(=O)c1c(C)oc2ccc(N(C(=O)Oc3ccccc3)S(=O)(=O)c3ccccc3)cc12`, the inhibition was 6.02%.
For `CCN1CCN(C(c2ccc(OC)cc2)c2c(O)cc(C)n(CCOC)c2=O)CC1` (stereo unspecified) the value was 6.21%; for `CCOc1ccc(/C=C(\C#N)c2nc(-c3cc4ccccc4oc3=O)cs2)c(OCC)c1`, 0.701%.
As to `COc1ccccc1NC(=O)c1c(NCc2sccc2C)sc2c1CCCCC2`, the inhibition was found to be 8.65%.
Take `CN(C(=O)Cn1c(=O)n(CCCS(=O)(=O)C2CCCCC2)c(=O)c2ccccc21)c1ccccc1`: the inhibition is -14.7%.
On to `CC(C)CN1C(=O)C(=O)N(CC(=O)NC(C)CCc2ccccc2)C1=O` (stereo unspecified), for which the inhibition is active: 52%.
For `CN(C(=O)c1cc(-c2ccccc2O)on1)c1ccccc1` the value was 16.1%; for `COc1ccc(S(=O)(=O)N2CCC(c3ccncc3)CC2)cc1Cl`, 9.05%.
Take `CCCCOc1c(Cl)cc(C(=O)N(Cc2ccc(C)o2)C2CCS(=O)(=O)C2)cc1Cl` (stereo unspecified): the inhibition was -27.7%.
For `Cc1cc(C)c2oc(C(=O)N(Cc3ccc(F)cc3)C3CCS(=O)(=O)C3)cc(=O)c2c1` (stereo unspecified) the value was -1.94%; for `C/C(N)=C(/C#N)C(=O)CSc1nnc(Nc2ccccc2)s1`, active: 48.6%.
For `CSc1ccc(CCNc2ncnc3onc(C)c23)cc1`, the inhibition is -12.2%.
With `COc1ccc(NC(=O)C2=C(C)Nc3nc(SCc4ccccc4C)nn3C2c2ccc(Br)cc2)cc1` (stereo unspecified), the inhibition is 16.3%.
On to `Cc1cccc(NC(=O)C2CCN(S(=O)(=O)c3cccc4nsnc34)CC2)c1C`, for which the inhibition was -12%.
Under `Cc1occc1C(=O)Nc1c(F)cc(F)cc1Br` stands active: 34%; under `Cc1cc(C)cc(NC(=O)CSc2nccn2-c2ccccc2)c1`, 4.03%; under `Cc1cc(Br)ccc1NC(=O)c1cc2c(=O)n(C)c3cc(Cl)ccc3c2s1`, 15.5%.
Take `O=C(NC1CC(=O)N(c2ccccc2)C1)C1CCCCC1` (stereo unspecified): the inhibition is 0.0054%.
On to `Cc1cccc2nc(-c3cccnc3)c(Nc3ccc(C(C)C)cc3)n12`, for which the inhibition was -8.76%.
Under `Cc1ccc(NC(=O)OCCN2CCN(Cc3ccccc3)CCC2=O)cc1` stands active: 42.7%; under `CC(CC(=O)NCc1ccc(Cl)cc1)CC1=NS(=O)(=O)c2ccccc2N1` (stereo unspecified), 7.9%.
Take `O=C(Cn1cc(SCc2ccc(C(F)(F)F)cc2)c2ccccc21)N1CCCCC1`: the inhibition is -16.1%.
In the case of `Cc1cccc(Nc2nnc(-n3nc(C)cc3C)c3ccccc23)c1`, the inhibition is -6.61%.
For the compound `CCc1cccc2c(-c3ccccc3)nc(SCC(=O)Nc3ccccc3)nc12`, the inhibition was -4.74%.
For `COc1ccc(N2CCN(CCCNC(=O)C3COc4ccc(OC)cc4C3)CC2)cc1` (stereo unspecified) the value was 6.35%.
For `COc1ccc(-c2cc(C)no2)cc1S(=O)(=O)NCc1ccc(OC(C)C)cc1` the value was 5.11%; for `COc1cc(NC(=O)c2cc(-c3ccc4c(c3)OCO4)on2)cc(OC)c1OC`, 18.5%.
For `COc1ccc(S(=O)(=O)c2cn(C)c3cc(N4CCCCC4)c(F)cc3c2=O)cc1` the value was 3.23%; for `CC(=O)c1ccc(N2CCN(c3nc4c(S(=O)(=O)c5ccccc5)nnn4c4ccc(Cl)cc34)CC2)cc1`, -3.01%; for `Cc1c(-c2nsc(NC(=O)c3ccc(Cl)cc3)n2)nnn1-c1ccc(C(C)C)cc1`, 7.16%.
Consider `COc1ccc(NC(=O)c2cnn(-c3ccc(C)cc3)c2-n2cccc2)cc1Cl`, for which the inhibition was -1.91%.
Take `Cc1ccc(-c2cc(N)n3nc(-c4ccc(C)cc4)cc3n2)cc1`: the inhibition is 9.81%.
As for `CCOC(=O)c1noc2ncnc(Nc3ccc(C)c(F)c3)c12`, the inhibition stood at 1.21%.
Regarding `CCOC(=O)c1noc2ncnc(N(CCC(=O)OC)c3ccccc3)c12`, the inhibition stood at 25.3%.
Take `COc1ccc(OC)c(C2CC(=O)c3c([nH]c(C(=O)OC4CCC(C)CC4)c3C)C2)c1` (stereo unspecified): the inhibition was determined as 3.47%.
With `O=C(C[n+]1cc(-c2ccccc2)n2c1CCC2)Nc1nc(-c2ccc(F)cc2)cs1`, the inhibition was active: 75.6%.
For `Cc1ccc2c(c1)sc1nc(=O)n(-c3ccc(Cl)cc3)c(=O)n12`, the inhibition was 0.0825%.
Under `CN1CCN(CCCNC(=O)Cn2c(-c3cccs3)cc3ccccc32)CC1` stands 13.1%; under `CCOC(=O)c1ccc(NC(=O)c2c(N3CCCC3=O)c3cc(OC)ccc3n2C)cc1`, 0.414%.
Under `Cc1ccc(C)c(N2CCN(C(=O)Cn3ncc4ccsc4c3=O)CC2)c1` stands 3.39%.
On to `Cc1cc2oc(C(=O)N(Cc3ccccc3F)C3CCS(=O)(=O)C3)c(C)c2cc1Cl` (stereo unspecified), for which the inhibition worked out at 2.34%.
In the case of `Cc1c(Cl)cccc1NC(=O)CN1C(=O)COc2ccc(S(=O)(=O)N3CCOCC3)cc21`, the inhibition is 0.33%.
For `CC1=C(C(=O)OCC2CCCCC2)C(c2cccc(Cl)c2Cl)CC(=O)N1` (stereo unspecified) the value was 5.47%; for `Cc1ccc(C2CC(=O)Nc3cc4c(cc32)OCCO4)cc1` (stereo unspecified), -15.3%.
For the compound `CC(=O)N1CCCC1c1nc2ccccc2n1Cc1ccccc1` (stereo unspecified), the inhibition came out at 10.7%.
In the case of `CC1CCCN(CCOCCOc2ccc(Br)cc2Cl)C1` (stereo unspecified), the inhibition is active: 51.6%.
For `CCOc1ccc(C(=O)c2oc3ccccc3c2NC(=O)Cc2coc3cc(C)cc(C)c23)cc1` the value was -0.242%.
Turning to `CCc1ccc(Cn2c(CNS(=O)(=O)c3ccc(F)c(Cl)c3)nc3cccnc32)cc1`, the inhibition was 21%.
Under `CCCSc1nnc2c(n1)OC(c1sccc1C)Nc1ccccc1-2` (stereo unspecified) stands 6.34%; under `CCc1cccc(NC(=O)c2cc3c(=O)n(Cc4ccc(OC)cc4)ccc3nc2C)c1`, 11.7%.
Regarding `Cc1ccc(N2C(=O)N(CC(=O)C(C)(C)C)c3ccccc3S2(=O)=O)cc1C`, the inhibition came out at 5.15%.
Under `CCOc1ccc(CCNC(=O)c2ccc(Nc3nc4ccccc4n4nnnc34)cc2)cc1OCC` stands 9.82%.
For the compound `CCOc1ccc(-c2cc(C(=O)N3CCN(S(=O)(=O)c4cc(Cl)ccc4OC)CC3)[nH]n2)cc1`, the inhibition is 7.42%.
For `CCC(CC)C(=O)N(c1ccc(F)cc1)C1C=CS(=O)(=O)C1` (stereo unspecified) the value was active: 72.6%.
For the compound `CCCCOC(=O)c1ccc(NC(=O)Cn2nnc3sc4c(c3c2=O)CCCC4)cc1`, the inhibition is -2.61%.
`O=C(NCc1cccs1)c1ccc(Cn2c(SCc3cccc(F)c3)nc3cccnc32)cc1`: the inhibition was -10.5%.
Take `COc1ccccc1-c1nc2c(c(SCC(=O)Nc3c(C)cc(C)cc3C)n1)Cc1c(CO)cnc(C)c1O2`: the inhibition is -16.4%.
Under `CCC(=O)N1CCc2cc(S(=O)(=O)CCC(=O)NCc3ccc(C)cc3)ccc21` stands 10.3%; under `CCOC(=O)c1c(NC(=O)c2cc3nc(-c4ccc(OC)cc4)cc(C(F)(F)F)n3n2)sc2c1CCC(C)C2` (stereo unspecified), 16.4%.
For `CCc1cccc(NC(=O)C(Cc2ccccc2)NS(=O)(=O)c2ccc3c(c2)oc(=O)n3C)c1` (stereo unspecified), the inhibition worked out at 18.4%.
Take `CCOC(=O)c1ccc(NC(=O)c2oc(=O)c3ccccc3c2-c2ccccc2)cc1`: the inhibition worked out at 14.3%.
For `COc1ccc(-n2c(N)c(-c3nc4ccccc4n3C)sc2=S)cc1`, the inhibition was active: 33.7%.
As to `Cc1cccc(Cn2c(=O)n(CC3CCC(C(=O)N4CCOCC4)CC3)c(=O)c3sccc32)c1` (stereo unspecified), the inhibition is 6.55%.
Under `COc1ccc(-c2cc(C)no2)cc1S(=O)(=O)NC(C)C` stands 0.766%.
Under `CCCOC(=O)CSc1ncnc2sc3c(c12)CCC(C)C3` (stereo unspecified) stands 15.2%; under `COc1cccc(NC(=O)N2CCN3CCCCC3C2)c1` (stereo unspecified), 2.18%.
Under `COc1cc(OC)cc(N2C(=O)N(CC(=O)c3ccc(F)cc3)c3ccccc3S2(=O)=O)c1` stands -10.1%.
`COc1ccc(CN2CCc3nc(SCC(=O)Nc4cc(C)cc(C)c4)[nH]c(=O)c3C2)cc1`: the inhibition amounted to 2.02%.
On to `COc1ccc(-c2noc(Cn3c(=O)c4ccccc4n(CC(=O)Nc4cccc(OC)c4)c3=O)n2)cc1`, for which the inhibition is 7.17%.
Regarding `COc1ccccc1NC(=O)c1sc2nc(N3CCOCC3)c3c(c2c1N)CC(C)(C)OC3`, the inhibition was 13%.
Turning to `COc1ccc(-c2noc(CSc3nnc(C)n3-c3ccc(OC)cc3)n2)cc1`, the inhibition is 1.55%.
As to `Cc1cccc(NC(=O)c2sc(-n3nc(C)c(Cc4ccc5c(c4)OCO5)c3C)nc2C)c1C`, the inhibition was -0.998%.
Regarding `Cc1ccc(Cn2c(SCc3ccc(C(=O)N4CCCCCC4)cc3)nc3ccncc32)cc1`, the inhibition was -4.14%.
For `O=C(CN1CCN(C(=O)c2ccco2)CC1)NCc1ccc(Cl)cc1` the value was active: 32.4%; for `O=C(O)COc1ccc2occ(C(=O)c3ccccc3)c2c1`, active: 37.5%.
As for `CNC(=O)Cn1cc(S(=O)(=O)Cc2ccccc2F)c2ccccc21`, the inhibition is -0.229%.
For `COC(=O)c1c(-c2cccs2)csc1NC(=O)COc1c(C)ccc(C)c1C`, the inhibition was -8.34%.
Under `CCOc1ccc(CCNC(=O)c2cnc3sc(N4CCC(C)CC4)nn3c2=O)cc1` stands 6.47%; under `CCCCCSc1nc2sc3c(c2c(=O)n1-c1ccccc1)CCN(C(C)=O)C3`, 20.7%; under `Cc1nn(C(=O)c2ccccc2F)c(C)c1S(=O)(=O)N1CCCCCC1`, -12.1%.
Under `COc1ccc(-c2oc3ncn4nc(COc5c(C)cccc5C)nc4c3c2-c2ccc(OC)cc2)cc1` stands 21.3%.
Under `CCOc1ccccc1NC(=O)N1CCc2cc(S(=O)(=O)N3CCC(C)CC3)ccc21` stands 3.69%; under `COc1ccc(-c2noc(-c3ccc(N4CCN(C)CC4)c([N+](=O)[O-])c3)n2)cc1OC`, 3.38%.
Turning to `Cc1ccccc1-c1nnc(CN2CCN(c3ccccn3)CC2)o1`, the inhibition was -2.4%.
For the compound `Cc1cc(Br)ccc1NC(=O)C1CCN(S(=O)(=O)c2cccc3nsnc23)CC1`, the inhibition amounted to 6.2%.
For `CCOC(=O)c1ccc(NC(=O)N2CCOc3ccccc32)cc1` the value was -14%; for `Cc1ccc2c(c1)-c1nc(-c3ccc4c(c3)NC(=O)CO4)cc(-c3ccc(F)cc3)c1CO2`, -0.979%; for `Cc1nc2c(C(=O)NCCc3ccc(Cl)cc3)c[nH]n2c(=O)c1Cc1ccc(Cl)cc1`, 6.73%.
Under `COc1ccccc1C(=O)Nc1c(C(=O)N(C)Cc2ccccc2)sc2nc(C)c(Cl)c(C)c12` stands 8.14%; under `O=C(CSc1nnc(-c2ccc(O)cc2)o1)c1ccc(Br)cc1`, -9.11%.
For `COc1ccc(C(=O)NCc2ccccc2CN2CCCC2)cc1S(=O)(=O)N1CCOCC1` the value was active: 45.2%.

What is called inhibition is the change of the read-out against control, counted positive when it falls.

(Values after PubChem BioAssay AID485344 (National Center for Advancing Translational Sciences (NCATS), 2010).)
